The chains are these.
B1: CPEB3 Ribozyme (parent)
chain: UAACAGGGGGCCACAGCAGAAGCGUUCACGUCGCAGCCCCUGUCAGAUUCUGGUGAAUCUGCGAAUUCUGCUGUAUAUCUC

Read counts are not given, so values of variants with three or more changes are uncertain.

Variants of B1 are the subject of this data set. Kind of data set: self-cleavage, relative activity (ratio to wild type); higher = more cleavage; in vitro, sequencing. Summed up:
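Relative activity was defined as the cleaved/total read fraction for a variant divided by the same fraction for the unmutated ribozyme. CPEB3 self-cleaving ribozyme libraries were made by rounds of error-prone PCR, barcoded, and transcribed in vitro with T7 RNA polymerase for 5 hours at 37°C, and cleavage ran through transcription plus a 15 min DNase I step before EDTA. Illumina sequencing of template-switched reverse transcripts gave the reads, and DNA sequencing mapped the barcodes. Averages come from three batches, using variants with at least 5 reads.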
Regarding UAACAGGGGGCCACAGCAGAAGCGUUCACGUCGCAGCCCCUGUCGGAUUCUGGUGAAUCACCGAAUUCUGCUGUAUAUCUC [A45G U60A G61C], the self-cleavage was determined as 0.27.
For UAACAGGGGGCCACAGCAGAAGCGUUCACGUCGCAGCCCCUGUCUGAUUCAGGUGGAUCUGCGAAUUCUGCUGUAUAUCUC [A45U U51A A56G], the self-cleavage was 0.4.
As for UAACAGGGGGCCACAGCAGAAGCGUUCACGUCGCAGCCCCUGUCUGAUUCUGGUGAAUCUGCGGAUACUGCUGUAUAUCUC [A45U A64G U67A], the self-cleavage is 0.18.
Take UAACAGGGGGCCACAGCAGAAGCGUUCACGUCGCAGCCCCUGUCGGAUUCUGGUGAAUCCGCGAGUUCAGCUGUAUAUCUC [A45G U60C A65G U69A]: the self-cleavage turned out to be 0.12.
For the variant UAACAGGGGGCCACAGCAGAAGCGUUCACGUCGCAGCCCCUGUCUGAUCCUGGUGGAUCUGCGAAUUCUGCUGUAUAUCUC [A45U U49C A56G], the self-cleavage amounted to 0.43.
The same measure for UAACAGGGGGCCACAGCAGAAGCGUUCACGUCGCAGCCCCUGUCUGAUCCUGGUGAAUCUGCGAAUUCCGCUGUAUAUCUC [A45U U49C U69C]: 0.16; for UAACAGGGGGCCACAGCAGAAGCGUUCACGUCGCAGCCCCUGUCGGAUUCUGGUGAAGCUGCGAAUUCUGCUGUAUGUCCC [A45G U58G A77G U80C]: 0.12; for UAACAGGGGGCCACAGCAGAAGCGUUCACGUCGCAGCCCCUGUCGGAUUCUGGAGAAUCUGCGAAUUCUGCUGUAUACCUC [A45G U54A U78C]: 0.92.
Take UAACAGGGGGCCACAGCAGAAGCGUUCACGUCGCAGCCCCUGUCUGAUUCUGGUGUAUCUGCGGGUUCUGCUGUAUACCUC [A45U A56U A64G A65G U78C]: the self-cleavage was 0.13.
The same measure for UAACAGGGGGCCACAGCAGAAGCGUUCACGUCGCAGCCCCUGUCUGACUCUGGUGAAUCUGCGAGCCCUGCUGUAUAUCUC [A45U U48C A65G U66C U67C]: 0.09; for UAACAGGGGGCCACAGCAGAAGCGUUCACGUCGCAGCCCCUGUCGGAUUCUGGUGAAUCUGCGAAUUCCGCUGUAAAUCAC [A45G U69C U76A U80A]: 0.31.
UAACAGGGGGCCACAGCAGAAGCGUUCACGUCGCAGCCCCUGUCUGGUUAUGGUGAAUCUGCGAAUUCUGCUGUAUAUCUC [A45U A47G C50A]: the self-cleavage was found to be 0.4.
Take UAACAGGGGGCCACAGCAGAAGCGUUCACGUCGCAGCCCCUGUCUGAUUCUGGUGAAUCUGUGAAUUCUGCUUUAUAUCUC [A45U C62U G73U]: the self-cleavage came out at 0.11.
Turning to UAACAGGGGGCCACAGCAGAAGCGUUCACGUCGCAGCCCCUGUCUGGUUCUGGUGAAUCUGCGAAUUCUGCCGUAUAUCUC [A45U A47G U72C], the self-cleavage amounted to 0.55.
For the variant UAACAGGGGGCCACAGCAGAAGCGUUCACGUCGCAGCCCCUGUCUGUUUCUGGUGGAUCUGCGAAUUCUGCUGUAUGUCUC [A45U A47U A56G A77G], the self-cleavage came out at 0.13.
The same measure for UAACAGGGGGCCACAGCAGAAGCGUUCACGUCGCAGCCCCUGUCGGAUUCUGGCGGAUCUGCGAAUAUUGCUGUAUAUCUC [A45G U54C A56G U67A C68U]: 0.32.
Turning to UAACAGGGGGCCACAGCAGAAGCGUUCACGUCGCAGCCCCUGUCUGAUUCUGGUGAAUCUGCGAUUUCUGCUGUAUAACUC [A45U A65U U78A], the self-cleavage stood at 0.1.
The same measure for UAACAGGGGGCCACAGCAGAAGCGUUCACGUCGCAGCCCCUGUCGGAUUCUGGAGAAUCUGCGAAUUCUGCUGUAUAUCCC [A45G U54A U80C]: 0.8.
For the variant UAACAGGGGGCCACAGCAGAAGCGUUCACGUCGCAGCCCCUGUCUGAUUCUGGUGAAUCUGCGUACUCUGCUGUAUACCUC [A45U A64U U66C U78C], the self-cleavage is 0.12.
With UAACAGGGGGCCACAGCAGAAGCGUUCACGUCGCAGCCCCUGUCUGAUUCGGGUGAAUCAGCGAAUUCUGCUGUAAAUCUC [A45U U51G U60A U76A], the self-cleavage is 1.06.
UAACAGGGGGCCACAGCAGAAGCGUUCACGUCGCAGCCCCUGUCUGAUUCUGGUAAAUCGGCGGAUUCCGCAGUAUAUCUC [A45U G55A U60G A64G U69C U72A]: the self-cleavage was 0.07.
Take UAACAGGGGGCCACAGCAGAAGCGUUCACGUCGCAGCCCCUGUCUGGUUCUGGUGAAUCUGCGAACUCUGCUGUAUAUCUC [A45U A47G U66C]: the self-cleavage is 0.2.
Consider UAACAGGGGGCCACAGCAGAAGCGUUCACGUCGCAGCCCCUGUCUGAUCCUGGUGAAUCUGCGAAUUUUGCUGUAUAUCUC [A45U U49C C68U], for which the self-cleavage turned out to be 0.09.
As for UAACAGGGGGCCACAGCAGAAGCGUUCACGUCGCAGCCCCUGUCGGAUUCUGGUGAAUCUGCGAAUUCCGCUGUAUAUCCC [A45G U69C U80C], the self-cleavage is 0.24.
In the case of UAACAGGGGGCCACAGCAGAAGCGUUCACGUCGCAGCCCCUGUCGGAUUCUGGUGAAACUGCGAAUUCUGCCGCAUAUCUC [A45G U58A U72C U74C], the self-cleavage turned out to be 0.21.
On to UAACAGGGGGCCACAGCAGAAGCGUUCACGUCGCAGCCCCUGUCUGAUUCUGGUGAAUCUGCGAUUUCUGCUAUAUAUUUC [A45U A65U G73A C79U], for which the self-cleavage was determined as 0.25.
Then UAACAGGGGGCCACAGCAGAAGCGUUCACGUCGCAGCCCCUGUCUGAAUCUGGUGAAACUGCGAAUUCUGCUGUAUAUCUC [A45U U48A U58A], with 0.09; and UAACAGGGGGCCACAGCAGAAGCGUUCACGUCGCAGCCCCUGUCGGAUUCUGGUGAAUCUGCGAAUCCUGCCGUAUAUCUC [A45G U67C U72C], with 0.29.
In the case of UAACAGGGGGCCACAGCAGAAGCGUUCACGUCGCAGCCCCUGUCUGAUACUGGUGAAACUGCGAAUUCUGCUGUGUAUCCC [A45U U49A U58A A75G U80C], the self-cleavage came out at 0.05.
Consider UAACAGGGGGCCACAGCAGAAGCGUUCACGUCGCAGCCCCUGUCUGAUACUGGUGAAUCUGCGAAUUCUGCUGUAUAACUC [A45U U49A U78A], for which the self-cleavage stood at 0.21.
Then UAACAGGGGGCCACAGCAGAAGCGUUCACGUCGCAGCCCCUGUCUGGUUCUGGUGAAUCUGCUAACUCUGCUGUAUAUCUC [A45U A47G G63U U66C], with 0.21; and UAACAGGGGGCCACAGCAGAAGCGUUCACGUCGCAGCCCCUGUCUGAUUCUGGUGAAUCUGCGAAUUCUGCUGUGUAUCAC [A45U A75G U80A], with 0.46.
For UAACAGGGGGCCACAGCAGAAGCGUUCACGUCGCAGCCCCUGUCUGAUUCUGGUGAAUCUGCGAGUUAUGCUGUAUAUCUC [A45U A65G C68A], the self-cleavage was determined as 0.28.
Regarding UAACAGGGGGCCACAGCAGAAGCGUUCACGUCGCAGCCCCUGUCUGAUUCUGGUGAAUCUGCGAGUUUUGCUGUAUAUCUC [A45U A65G C68U], the self-cleavage is 0.38.
